Assay results from PubChem BioAssay AID1745853 (National Center for Advancing Translational Sciences (NCATS), 2022).
The list shows a part of the results. The main result of the screen is listed elsewhere. These columns were measured beside it and carry no call.

Experiments:
Assay in all cases: Primary Screen for Target Class Profiling of Small Molecule Inhibitors of Methyltransferases
[1] = molecular target: Glycine N-methyltransferase (Homo sapiens) (UniProt Q14749); conditions: purified enzyme, MTase-Glo SAH luminescence; measured here: GNMT inhibition; at 40 µM; stronger effect = lower value
Procedure, shortened: (§1)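 Each enzyme was reacted with SAM and its substrate, with compounds tested once at 40 uM; SAH formed was read by MTase-Glo luminescence.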

[2] = molecular target: Guanidinoacetate N-methyltransferase (Homo sapiens) (UniProt Q14353); conditions: purified enzyme, MTase-Glo SAH luminescence; measured here: GAMT inhibition; at 40 µM; stronger effect = lower value
Procedure, shortened: as §1

[3] = molecular target: Histamine N-methyltransferase (Homo sapiens) (UniProt P50135); conditions: purified enzyme, MTase-Glo SAH luminescence; measured here: HNMT inhibition; at 40 µM; stronger effect = lower value
Procedure, shortened: as §1

[4] = molecular target: Nicotinamide N-methyltransferase (Homo sapiens) (UniProt P40261); conditions: purified enzyme, MTase-Glo SAH luminescence; measured here: NNMT inhibition; at 40 µM; stronger effect = lower value
Procedure, shortened: as §1

[5] = molecular target: Phenylethanolamine N-methyltransferase (Homo sapiens) (UniProt P11086); conditions: purified enzyme, MTase-Glo SAH luminescence; measured here: PNMT inhibition; at 40 µM; stronger effect = lower value
Procedure, shortened: as §1
% is scaled to controls: 0 for no effect and ±100 for the full control effect.

| SMILES | activity change, negative = inhibition [1] [%] | activity change, negative = inhibition [2] [%] | activity change, negative = inhibition [3] [%] | activity change, negative = inhibition [4] [%] | activity change, negative = inhibition [5] [%] |
| --- | --- | --- | --- | --- | --- |
| COc1cccc(CNC(=O)Cn2nc3n(CCC(C)C)c(=O)c4ccccc4n3c2=O)c1 | 6.05 | 1.09 | 11.4 | 7.01 | 5.12 |
| CC(C)CCN1C(=O)c2ccc(-c3ccco3)n2CC1(C)C(=O)NC1CCCCCC1 (stereo not given) | -5.2 | 0 | 4.65 | -1.93 | -0.956 |
| Cc1nc2ccc(C(=O)NC(C(=O)O)c3c(C)n[nH]c3C)cc2[nH]1 (stereo not given) | -1.12 | 2.24 | 2.81 | 0.729 | 8.57 |
| CC(C(=O)NCc1cccs1)n1ccc2cc(S(=O)(=O)N3CCCC3)ccc21 (stereo not given) | 1.76 | 0 | 0.885 | -5.37 | -0.268 |
| CCCn1c(=O)c2ccc(C(=O)NC3CCCCC3)cc2n2c(=O)n(CC(=O)NC3CCCC3)nc12 | 8.18 | 2 | 4.28 | 9.31 | 9.18 |
| O=C(N[C@@H]1CCOC[C@H]1OCCO)c1ccc2c(c1)ncn2CCO | -1.31 | -13 | -2.11 | -4.1 | -4.35 |
| COc1ccc(CCN2C(=O)c3cc4ccccc4n3CC2(C)C(=O)NC2CCCC2)c(OC)c1 (stereo not given) | 3.47 | 8.76 | -0.469 | -2.47 | -1.4 |
| CC1(C)Oc2ncnc(N)c2N=C1c1ccc(C2CCC(CC(=O)O)CC2)cc1 (stereo not given) | -5.78 | -0.242 | 6.14 | -19.5 | 3.55 |
| CC1(C(=O)NC2CCCCCC2)Cn2c(ccc2-c2ccco2)C(=O)N1Cc1ccccc1 (stereo not given) | -7.49 | 3.86 | -2.92 | -12.3 | -3.45 |
| CC1(C(=O)NCc2ccccc2)Cn2nc(-c3ccccc3)cc2C(=O)N1CCc1ccccc1 (stereo not given) | -1.67 | 5.64 | -0.434 | -1.86 | -4.92 |
| O=C1C2C=CC=CC2=NC(=S)N1CCN1CCC(=C(c2ccc(F)cc2)c2ccc(F)cc2)CC1 (stereo not given) | -3.16 | 12.7 | 2.4 | -0.126 | 8.37 |
| CCCn1c(=O)c2ccc(Cl)cc2n2c(=O)n(Cc3ccc(C)cc3)nc12 | 6.7 | 0 | 14.3 | 4.44 | 6.8 |
| CCCn1c(=O)c2ccccc2n2c(SCc3cccc(OC)c3)nnc12 | -11.8 | 1.77 | 0.779 | -18 | -3.73 |
| C=C1C(=O)OC2CC(C)C(CCC(C)O)=CCC12 (stereo not given) | 0.62 | 6.09 | 8.88 | -4.31 | 7.59 |
| COc1ccc(CCNc2nc3c(S(=O)(=O)c4ccc(C)cc4)nnn3c3ccccc23)cc1OC | -23.1 | 6.25 | -2 | -2.95 | 1.26 |
| Cc1c(Cl)cccc1NC(=O)Cn1c(=O)nc(N(C)c2ccccc2)c2ccccc21 | -0.615 | 0 | -7.77 | -2.18 | -2.31 |
| CCCN1C(=O)c2cc(C(=O)NCCN3CCN(CC)CC3)nn2CC1(C)C(=O)NC1CCCC1 (stereo not given) | 1.64 | 3.04 | -0.914 | -1.83 | -1.99 |
| O=C(c1ccc(Cl)cc1)N1CC2(CCN(CC3CC3)CC2)Cc2ccccc21 | -3.44 | -2.16 | -82.7 | -20.9 | -5.5 |
| CCC(C)NC(=O)c1ccc2c(=O)n(C)c3nn(CC(=O)Nc4ccc(C)cc4Cl)c(=O)n3c2c1 (stereo not given) | 9.29 | 4.13 | 11.6 | 5.23 | 6.12 |
| COc1cc([C@@H]2c3cc4c(cc3[C@H](O)[C@@H](CO)[C@@H]2C(=O)NC(C)C)OCO4)cc(OC)c1OC | -3.92 | -11.1 | -4.17 | -14.5 | -10.7 |
| Cc1cc(C)cc(N2CCN(c3cc(C4CC(O)C4)ncn3)CC2=O)c1 (stereo not given) | -0.106 | 1.27 | 0.692 | 0.229 | 0.259 |

| SMILES | activity change, negative = inhibition [1] [%] | activity change, negative = inhibition [2] [%] | activity change, negative = inhibition [3] [%] | activity change, negative = inhibition [4] [%] | activity change, negative = inhibition [5] [%] |
| --- | --- | --- | --- | --- | --- |
| Cc1cc(C)cc(NC(=O)N2CCn3cccc3C2C)c1 (stereo not given) | -9.67 | 0.863 | -18.7 | -17.4 | -9.4 |
| CCc1cn(C[C@@H](C(=O)O)N(CC)CC)c(=O)[nH]c1=O | -1.8 | -2.32 | -1.65 | 2.17 | -4.73 |
| Cc1ccc(CN2C(=O)c3ccc(-c4ccco4)n3CC2(C)C(=O)NC2CCCCCCC2)o1 (stereo not given) | -5.15 | 0 | 4 | -13.9 | 1.7 |
| CCn1cc(S(=O)(=O)N2CCOc3ccc(CN4CCCCCC4)cc3C2)cn1 | -6.81 | -6.12 | -34 | -6.3 | -4.41 |
| CCOc1ccc(-c2cc3n(n2)CC(C)(C(=O)NC2CCCCC2)N(Cc2ccccn2)C3=O)cc1 (stereo not given) | -2.82 | 0.801 | 1.43 | 0.746 | -2.35 |
| COc1cccc(CCC(=O)N2CCCC(CN3CCCC3)CC2)c1 (stereo not given) | -4.99 | 1.42 | -28.4 | -4.65 | 11.4 |
| COc1ccc(C(=O)Cn2nc3n(C)c(=O)c4ccc(C(=O)NC5CCCC5)cc4n3c2=O)cc1 | 2.32 | 3.7 | 1.07 | -0.994 | 0.313 |
| COC[C@@H]1CCCN1Cc1cc2cc3c(cc2[nH]c1=O)OCO3 | -2.83 | -0.448 | -1.65 | -0.196 | 9.7 |
| Cc1ccc2oc([C@H]3CCN(C(=O)C4CC4)C3)nc2c1 | -4.07 | -3.42 | -2.63 | -11.6 | -23.2 |
| COc1cccc(NS(=O)(=O)c2cc3c(cc2Cl)n(C)c(=O)n3C)c1 | 1.68 | 0 | -1.29 | 0.852 | 1.31 |
| COc1ccc(N(C(=O)c2ccccc2)S(=O)(=O)c2ccc3c(c2)n(C)c(=O)n3C)cc1 | -7.48 | 4.37 | -8.56 | -7.9 | -3.6 |
| c1cc(NCCc2c[nH]c3ccccc23)cc(Nc2ccncc2)c1 | -44.1 | -16.6 | -94.4 | -53.3 | -30.9 |
| CCCCN1C(=O)c2cc(C(=O)NCc3cc(OC)ccc3OC)nn2CC1(C)C(=O)NC1CCCC1 (stereo not given) | -1.71 | 0.04 | -1.65 | -8.55 | -4.45 |
| CCCN1C(=O)c2cc(C(=O)NCc3ccc(Cl)cc3)nn2CC1(C)C(=O)NC1CCCC1 (stereo not given) | -0.237 | 1.72 | -6.15 | -2.48 | -1.5 |
| COc1ccc(CCN2CC(NC(=O)Cn3ccc(C)n3)CC2=O)cc1 (stereo not given) | -7.35 | -12.7 | -5.98 | -17.3 | -11.6 |
| CCCN1C(=O)c2c(C(=O)NCCCc3ccccc3)ncn2CC1(C)C(=O)NC1CCCC1 (stereo not given) | 0.29 | 0.218 | 1.38 | 4.01 | 6.49 |
| CCCN1CCN(C(=O)c2cc3n(n2)CC(C)(C(=O)NC2CCCCCC2)N(C)C3=O)CC1 (stereo not given) | 2.15 | 1.01 | 0.989 | 0.394 | -2.22 |
| CCOC(=O)c1cc2n(n1)CC(C)(C(=O)NCCC(C)C)N(c1ccccc1C)C2=O (stereo not given) | 4.08 | -38.9 | 4.56 | 8.13 | -0.251 |
| O=C(Cn1c(=O)n2nc(-c3cccc(F)c3)nc2c2ccccc21)N1CCN(c2ccc(F)cc2)CC1 | 1.26 | 3.15 | -0.681 | -1.26 | -1.53 |
| N#Cc1ccc(CN2CCC3(CC(c4cccc(C(F)(F)F)c4)=NO3)C2)cc1 (stereo not given) | -5.82 | -7.26 | -2.91 | -9.27 | -12.2 |
| CCC/C=C/c1cc2c(C=O)c(O)c(CC=C(C)C)cc2o1 | -4.69 | -15.3 | 3.79 | -41.5 | -13.7 |

| SMILES | activity change, negative = inhibition [1] [%] | activity change, negative = inhibition [2] [%] | activity change, negative = inhibition [3] [%] | activity change, negative = inhibition [4] [%] | activity change, negative = inhibition [5] [%] |
| --- | --- | --- | --- | --- | --- |
| Cc1nn(CCO)cc1CN1CCC2(CC1)C(C(=O)O)CC(=O)N2C (stereo not given) | -2.31 | -5.37 | 1.85 | -0.545 | 2.72 |
| CC(C)c1cc(C(=O)N2Cc3ccc(CN4CCN(C)CC4)cc3C2)c(O)cc1O | -3.41 | -4.6 | -32 | -23 | -3.37 |
| COc1ccc(CCNC(=O)CCc2nnc3n(Cc4ccccc4)c(=O)c4ccccc4n23)cc1OC | -11.5 | 0 | 8.28 | -7.47 | 1.65 |
| Cc1cnc(CCNC(=O)c2ccc(C#N)cc2)n1C1CC1 | -3.6 | -8.03 | -12.3 | -9.68 | -10.6 |
| O=C(Nc1ccc(=O)n2c1[C@@H]1C[C@@H](CN(C(=O)COc3ccccc3)C1)C2)c1ccccc1 | -5.42 | -4.62 | -3.13 | -8.05 | -5.58 |
| CN1CCC(COc2cnc(-c3cccc(Cn4nc(-c5cccc(C#N)c5)ccc4=O)c3)nc2)CC1 | -5.54 | 11.6 | -41.9 | -18.5 | -1.57 |
| Cc1cccc(CSc2nnc3n(CCCOC(C)C)c(=O)c4ccccc4n23)c1 | -7.18 | 0 | -2.14 | -7.98 | 1.9 |
| Cc1ccc(OCC(=O)NCc2c(C)ncc3c2CCNC3)cc1C | -1.38 | 0.71 | -3.45 | -1.79 | -2.41 |
| O=C(NCCc1ccc(Cl)cc1)c1ccc2c(=O)nc3c(-c4cccc(F)c4)n[nH]n3c2c1 | 2.64 | -1.22 | 3.83 | -6.05 | -0.276 |
| COc1ccccc1OC1(C(=O)O)CCN(c2ncnc(C)c2C)CC1 | -0.244 | 2.9 | 1.59 | -2.7 | -2.37 |
| CCCCOc1ccc(CNC(=O)c2cc3n(n2)CC(C)(C(=O)NC2CCCC2)N(CC)C3=O)cc1 (stereo not given) | 3.21 | 0 | 5.44 | 3.95 | 1.37 |
| CN(Cc1ccc2nsnc2c1)Cc1cc2n(n1)CCCNC2 | -1.22 | 3.96 | -0.681 | -2.42 | -5.61 |
| O=C1CCC2(CNC(=O)c3cc(F)ccc3F)CCC=C2N1 (stereo not given) | 0.632 | -1.07 | 2.81 | -4.57 | 3.2 |
| CC(C)Nc1nc(Nc2ccccc2)nc(-c2ccccc2)n1 | -3.67 | -15.9 | -9.06 | -23.4 | -15.3 |
| COCCn1c(C)cnc1C1CCN(S(=O)(=O)c2ccc(C#N)cc2)C1 (stereo not given) | -0.66 | -0.596 | -6.96 | -8.07 | -0.919 |
| COc1ccc([C@H]2CN(C(=O)C3(c4ccc(F)cc4)CC3)C[C@@H]2N)cc1 | -3.99 | -2.43 | -1.43 | -1.07 | 2.88 |
| COc1cccc(CN2C[C@@H]3C(C(=O)O)[C@@H]3C2)c1OCCn1ccnc1 (stereo not given in full) | -5.24 | -5.17 | -2.38 | -10.7 | -5.04 |
| CCCN1C(=O)c2cc(C(=O)NCc3ccccc3)nn2CC1(C)C(=O)NC1CCCC1 (stereo not given) | 4.48 | 0.533 | 2.65 | 7.7 | 2.72 |
| CCOc1ccc(NC(=O)N2CCn3cccc3C2C)cc1 (stereo not given) | 1.45 | 0 | 2.76 | -5.2 | -0.686 |
